Laboratory results published in a collection of fitness landscapes (doi:10.1126/science.1257360).
The list shows a part of the results.

B1: PhoQ; a variant is named by its letters at X, in order, P23837 (parent)
chain: MKKLLRLFFPLSLRVRFLLATAAVVLVLSLAYGMVALIGYSVSFDKTTFRLLRGESNLFYTLAKWENNKLHVELPENIDKQSPTMTLIYDENGQLLWAQRDVPWLMKMIQPDWLKSNGFHEIEADVNDTSLLLSGDHSIQQQLQEVREDDDDAEMTHSVAVNVYPATSRMPKLTIVVVDTIPVELKSSYMVWSWFIYVLSANLLLVIPLLWVAAWWSLRPIEALAKEVRELEEHNRELLNPATTRELTSLVRNLNRLLKSERERYDKYRTTLTDLTHSLKTPLXXLQXXLRSLRSEKMSVSDAEPVMLEQISRISQQIGYYLHRASMRGGTLLSRELHPVAPLLDNLTSALNKVYQRKGVNISLDISPEISFVGEQNDFVEVMGNVLDNACKYCLEFVEISARQTDEHLYIVVEDDGPGIPLSKREVIFDRGQRVDTLRPGQGVGLAVAREITEQYEGKIVAGESMLGGARMEVIFGRQHSAPKDE

Variants of: B1
Assay: enrichment ratio after two sorts for PhoP signalling (ratio (wild type AVST 3.29)); higher = more functional
Details: with PhoP (E. coli)

Row | Variant | enrichment ratio
1 | GNGP | ≤ 0.25
2 | RYCT | ≤ 0.25
3 | PPRL | ≤ 0.25
4 | AGIL | 7.93
5 | WIRS | ≤ 0.25
6 | KIVW | ≤ 0.25
7 | QGTW | ≤ 0.25
8 | SPAF | ≤ 0.25
9 | LVWW | ≤ 0.25
10 | EPQS | ≤ 0.25
11 | QIVL | ≤ 0.25
12 | QRDR | ≤ 0.25
13 | SERM | ≤ 0.25
14 | AYGG | ≤ 0.25
15 | AGRN | ≤ 0.25
16 | ARFM | ≤ 0.25
17 | EADR | ≤ 0.25
18 | KMII | ≤ 0.25
19 | SGLG | 15.5
20 | KDHY | ≤ 0.25
21 | YERV | ≤ 0.25
22 | RCTA | ≤ 0.25
23 | PDTY | ≤ 0.25
24 | YPCH | ≤ 0.25
25 | WQSK | ≤ 0.25
26 | TWMC | ≤ 0.25

Row | Variant | enrichment ratio
27 | GLVA | ≤ 0.25
28 | NCCM | ≤ 0.25
29 | FWKN | ≤ 0.25
30 | LHCS | ≤ 0.25
31 | QIWW | ≤ 0.25
32 | LMFH | ≤ 0.25
33 | YGGK | ≤ 0.25
34 | PHYP | ≤ 0.25
35 | IASF | ≤ 0.25
36 | TFMW | ≤ 0.25
37 | GHFF | ≤ 0.25
38 | FEFD | ≤ 0.25
39 | VRAS | ≤ 0.25
40 | ICSD | ≤ 0.25
41 | KNAH | ≤ 0.25
42 | KITR | ≤ 0.25
43 | ATER | ≤ 0.25
44 | FYYM | ≤ 0.25
45 | KIEW | ≤ 0.25
46 | NYRV | ≤ 0.25
47 | IFTV | ≤ 0.25
48 | IKNE | ≤ 0.25
49 | VFLQ | ≤ 0.25
50 | ECYF | ≤ 0.25
51 | SPWK | ≤ 0.25
52 | MCFT | ≤ 0.25

Row | Variant | enrichment ratio
53 | DWWA | ≤ 0.25
54 | TATP | ≤ 0.25
55 | VEFP | ≤ 0.25
56 | LSDP | ≤ 0.25
57 | WGLD | ≤ 0.25
58 | GNRA | ≤ 0.25
59 | HSTP | ≤ 0.25
60 | FFCN | ≤ 0.25
61 | HLSL | 0.631
62 | KAEI | ≤ 0.25
63 | DFFG | ≤ 0.25
64 | TQWI | 1.91
65 | DWDN | ≤ 0.25
66 | DSHT | ≤ 0.25
67 | PPHV | ≤ 0.25
68 | SVRM | ≤ 0.25
69 | MGWS | 3.38
70 | GVCC | 1.17
71 | WEVT | ≤ 0.25
72 | AEFG | 8.7
73 | IVKG | ≤ 0.25
74 | RVPE | ≤ 0.25
75 | HHNM | ≤ 0.25
76 | SEQG | 17.8
77 | VKSS | ≤ 0.25
78 | VHCT | ≤ 0.25

Row | Variant | enrichment ratio
79 | DMPT | ≤ 0.25
80 | IHYG | ≤ 0.25
81 | LRHQ | ≤ 0.25
82 | WAFH | ≤ 0.25
83 | KDEH | ≤ 0.25
84 | KHGS | ≤ 0.25
85 | LIPG | ≤ 0.25
86 | WIFK | ≤ 0.25
87 | PFKI | ≤ 0.25
88 | PLSK | ≤ 0.25
89 | NCDF | ≤ 0.25
90 | YWRH | ≤ 0.25
91 | PSTH | ≤ 0.25
92 | MVYK | 17.6
93 | KRKE | ≤ 0.25
94 | SCYG | ≤ 0.25
95 | WNGA | ≤ 0.25
96 | SFNE | ≤ 0.25
97 | NTAM | ≤ 0.25
98 | FAGL | ≤ 0.25
99 | IQFW | ≤ 0.25
100 | MREG | ≤ 0.25
101 | GTKY | ≤ 0.25
102 | DFWR | ≤ 0.25
103 | KHSP | ≤ 0.25
104 | WWGN | ≤ 0.25

Row | Variant | enrichment ratio
105 | TSNW | ≤ 0.25
106 | QYRV | ≤ 0.25
107 | FCIP | ≤ 0.25
108 | LFDQ | ≤ 0.25
109 | THML | 12.8
110 | SVQM | 1.05
111 | PLCI | ≤ 0.25
112 | VGSK | ≤ 0.25
113 | AMHN | ≤ 0.25
114 | TPRQ | ≤ 0.25
115 | RYPH | ≤ 0.25
116 | ESCM | ≤ 0.25
117 | YSHD | ≤ 0.25
118 | MLGT | ≤ 0.25
119 | FNYQ | ≤ 0.25
120 | RRPH | ≤ 0.25
121 | WQSC | ≤ 0.25
122 | NYLM | ≤ 0.25
123 | TYGG | ≤ 0.25
124 | RWVE | ≤ 0.25
125 | MATD | ≤ 0.25
126 | SPPR | ≤ 0.25
127 | IIPH | ≤ 0.25
128 | VTIP | ≤ 0.25
129 | YCAV | ≤ 0.25
130 | ELLC | ≤ 0.25

Row | Variant | enrichment ratio
131 | LLLH | ≤ 0.25
132 | QHQF | ≤ 0.25
133 | TKIR | ≤ 0.25
134 | EDMN | ≤ 0.25
135 | PWTK | ≤ 0.25
136 | HSMH | ≤ 0.25
137 | YCCW | ≤ 0.25
138 | IVTL | ≤ 0.25
139 | PLCC | ≤ 0.25
140 | LRSH | ≤ 0.25
141 | KIRK | ≤ 0.25
142 | EYQT | ≤ 0.25
143 | IHNP | ≤ 0.25
144 | SMIF | ≤ 0.25
145 | RAFE | ≤ 0.25
146 | DQLI | ≤ 0.25
147 | DIGN | ≤ 0.25
148 | GFKF | ≤ 0.25
149 | YRWW | ≤ 0.25
150 | MEVL | 11.6
151 | APWL | ≤ 0.25
152 | SYYT | ≤ 0.25
153 | TLTF | ≤ 0.25
